The supplement of paper PMC7826260
The list shows a part of the results. The data describe in vitro nicking of single-stranded DNA by Rep domains (3 µM enzyme, 1 h, 37 °C); shown is the middle of each 90-letter strand. Uncut reads are compared with the no-enzyme pool on a log2 scale; uncut sequences lie near 0, cut ones below; no hit call is given. The scaling is to total reads, so uncut sequences can rise above 0 when many others are cut.

Key:
Assay in all cases: uncleaved DNA left, log2 of reads against the no-enzyme library (log2 ratio); higher = less cleavage (more negative = more Rep cleavage of the k-mer); sequences stand for … in CTCGTCCG…ACCGGAGA
[1] = test system: T1, Rep nickase domain of Muscovy duck circovirus
T1 sequence (residues 1-111 of Rep, tag left off): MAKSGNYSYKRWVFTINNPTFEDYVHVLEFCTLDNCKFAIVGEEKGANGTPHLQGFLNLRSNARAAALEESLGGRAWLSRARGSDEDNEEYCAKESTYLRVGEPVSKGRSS
Procedure: (§1)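 A pool of 90-nt single-stranded DNAs with seven random bases just before the constant AC of the nick site (name = the seven bases) was cut by 3 µM recombinant His6-SUMO-tagged Rep nickase domain (300 nM DNA, 50 mM HEPES pH 8.0, 50 mM NaCl, 1 mM MnCl2, 1 h, 37 °C, three replicates). Uncut DNA was amplified and sequenced.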

[2] = test system: T2, Rep nickase domain of banana bunchy top virus
T2 sequence (residues 1-94 of Rep, tag left off): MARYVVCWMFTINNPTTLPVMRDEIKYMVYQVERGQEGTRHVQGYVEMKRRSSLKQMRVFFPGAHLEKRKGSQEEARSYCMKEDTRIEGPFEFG
Procedure: as §1

[3] = test system: T3, Rep nickase domain of cabbage leaf curl virus
T3 sequence (residues 1-116 of Rep, tag left off): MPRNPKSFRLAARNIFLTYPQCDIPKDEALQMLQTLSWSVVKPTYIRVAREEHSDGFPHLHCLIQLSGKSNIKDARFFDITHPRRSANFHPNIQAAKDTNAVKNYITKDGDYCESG
Procedure: as §1

[4] = test system: T4, Rep nickase domain of chickpea chlorotic dwarf virus
T4 sequence (residues 1-124 of Rep, tag left off): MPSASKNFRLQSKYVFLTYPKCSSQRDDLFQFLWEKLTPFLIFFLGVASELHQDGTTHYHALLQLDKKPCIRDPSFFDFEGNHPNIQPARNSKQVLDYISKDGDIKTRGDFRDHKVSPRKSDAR
Procedure: as §1

[5] = test system: T5, Rep nickase domain of faba bean necrotic yellows virus
T5 sequence (residues 1-98 of Rep, tag left off): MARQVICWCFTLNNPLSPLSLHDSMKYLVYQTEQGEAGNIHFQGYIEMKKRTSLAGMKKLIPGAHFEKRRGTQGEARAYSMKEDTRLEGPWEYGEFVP
Procedure: as §1

[6] = test system: T6, Rep nickase domain of maize striate mosaic virus
T6 sequence (residues 1-117 of Rep, tag left off): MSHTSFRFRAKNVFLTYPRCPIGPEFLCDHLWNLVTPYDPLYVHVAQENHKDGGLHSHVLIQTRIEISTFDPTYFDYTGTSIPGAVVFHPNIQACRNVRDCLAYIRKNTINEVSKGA
Procedure: as §1

[7] = test system: T7, Rep nickase domain of porcine circovirus 2
T7 sequence (residues 2-116 of Rep, tag left off): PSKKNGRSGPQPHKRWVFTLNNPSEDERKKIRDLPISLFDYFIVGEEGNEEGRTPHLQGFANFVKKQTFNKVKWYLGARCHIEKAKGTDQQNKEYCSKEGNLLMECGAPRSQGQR
Procedure: as §1

[8] = test system: T8, Rep nickase domain of tomato golden mosaic virus
T8 sequence (residues 1-124 of Rep, tag left off): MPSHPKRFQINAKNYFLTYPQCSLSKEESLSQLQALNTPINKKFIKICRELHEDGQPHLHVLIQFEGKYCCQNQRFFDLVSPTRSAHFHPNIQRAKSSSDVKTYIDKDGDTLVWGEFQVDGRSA
Procedure: as §1

[9] = test system: T9, Rep nickase domain of tomato yellow leaf curl virus
T9 sequence (residues 1-136 of Rep, tag left off): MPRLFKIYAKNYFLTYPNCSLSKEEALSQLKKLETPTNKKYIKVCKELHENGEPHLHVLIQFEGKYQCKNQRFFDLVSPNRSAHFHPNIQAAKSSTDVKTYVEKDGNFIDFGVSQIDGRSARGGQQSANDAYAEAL
Procedure: as §1

[10] = test system: T10, Rep nickase domain of wheat dwarf virus
T10 sequence (residues 1-137 of Rep, tag left off): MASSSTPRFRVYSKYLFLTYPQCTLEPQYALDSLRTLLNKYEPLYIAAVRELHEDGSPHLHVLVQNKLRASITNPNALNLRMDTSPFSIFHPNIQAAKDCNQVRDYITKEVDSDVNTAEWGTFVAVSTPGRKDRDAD
Procedure: as §1

Sequence	uncleaved DNA left (log2) [1]	uncleaved DNA left (log2) [2]	uncleaved DNA left (log2) [3]	uncleaved DNA left (log2) [4]	uncleaved DNA left (log2) [5]	uncleaved DNA left (log2) [6]	uncleaved DNA left (log2) [7]	uncleaved DNA left (log2) [8]	uncleaved DNA left (log2) [9]	uncleaved DNA left (log2) [10]
GGTGAAG	-0.0338	0.066	0.0144	0.41	-0.0466	0.0937	0.0888	0.137	0.0568	-0.023
GTGGGTG	0.106	-0.0207	-0.0366	0.295	0.0812	0.199	0.0792	-0.0788	-0.117	0.0377
TCACATC	0.223	0.00313	-0.00325	-0.225	0.0113	-0.864	0.191	0.0891	0.0668	0.0996
TGCGCCT	-0.157	-0.021	0.0151	-0.493	-0.0495	-0.073	-0.0829	-0.0301	-0.0211	-0.0852
TAGTTCA	-0.433	-0.52	-0.22	-2.49	-1.27	-0.296	-3.36	0.0245	0.0643	-0.0502
GGGAGGT	0.0846	0.0946	0.867	1.96	-0.104	2.29	0.217	0.0369	0.0304	0.0835
TGTCCAA	0.000199	0.0672	0.29	0.426	-0.0066	0.497	0.111	0.0356	0.172	0.177
CCGACTT	0.126	0.07	0.0332	0.378	-0.116	1.41	-0.0512	-0.00478	-0.0967	0.0237
TTCGTTA	-0.239	-0.172	0.025	-0.889	-0.166	-0.461	-0.383	-0.108	-0.0716	-0.261
ATTCTCG	-0.109	-0.0531	-0.918	-0.526	-0.0657	-1.12	0.0767	-0.0349	-0.0118	-0.0287
CTAGCTC	-0.0334	-0.0205	-0.0199	-0.282	-0.065	-0.474	-0.0484	-0.0527	-0.00374	-0.0483
CGGGGAC	-0.111	0.0289	0.947	1.48	-0.195	2.23	0.155	0.176	-0.102	-0.0211
GGCGAGA	0.12	0.136	0.819	1.9	0.141	2.19	0.239	0.0966	0.199	0.185
AGTTCAC	-0.00747	-0.117	0.0282	-0.146	-0.128	-0.371	-0.0815	-0.0747	0.0353	-0.00892
GAATGTA	-0.399	0.195	-0.243	-0.661	0.188	0.543	-1.45	0.0259	0.14	0.0325
TTACCTG	-0.179	-0.203	-0.211	-1.56	-0.164	0.413	-0.626	-0.228	-0.176	-0.198
CTGTAAC	0.0848	0.0702	-0.34	-1.64	0.128	-0.511	0.0168	0.0461	-0.0351	-0.102
AGCAAGA	0.0682	0.0958	0.0964	0.41	-0.0463	-0.138	-0.0416	0.0641	-0.0166	0.0833
GGTTGTT	-2.19	-0.154	-0.053	0.13	-0.00931	1.33	-2.38	-0.165	0.052	-0.208
CATACTA	0.0384	0.0524	-0.114	-2.46	0.183	-0.482	-0.0452	0.0679	0.132	0.118

Sequence	uncleaved DNA left (log2) [1]	uncleaved DNA left (log2) [2]	uncleaved DNA left (log2) [3]	uncleaved DNA left (log2) [4]	uncleaved DNA left (log2) [5]	uncleaved DNA left (log2) [6]	uncleaved DNA left (log2) [7]	uncleaved DNA left (log2) [8]	uncleaved DNA left (log2) [9]	uncleaved DNA left (log2) [10]
TCCTAGC	0.177	0.0258	-0.138	-0.379	0.0696	-0.817	0.111	0.0114	-0.068	-0.0522
CGCATAC	0.0377	-0.0868	-0.0897	-0.505	0.0731	-0.61	0.15	-0.0686	-0.05	-0.131
TTTCGGA	-0.0772	0.0614	0.14	0.338	-0.0185	-0.0112	0.135	0.0533	-0.0963	-0.0374
TGTATTG	-0.086	-0.0526	-0.374	-0.419	0.092	-1.01	0.0277	-0.0357	0.0584	-0.111
GCTAGGT	0.0996	0.0905	0.394	0.904	-0.0657	1.18	0.118	0.0816	0.0205	0.145
ATCAACC	-0.108	-0.0943	-0.142	-1.44	0.0138	-0.839	-0.491	-0.0279	-0.0431	-0.0393
ACTGCGG	0.012	-0.0419	-0.819	-0.646	0.0419	-0.894	0.151	-0.0489	-0.0511	-0.165
AGGCGGA	0.118	0.162	0.0925	0.19	0.0845	-0.204	0.146	0.193	0.0531	0.0217
AACGTAG	0.0101	0.0145	-0.617	-0.809	0.0125	-1.07	0.213	0.00805	0.064	0.00378
TATAGTT	-1.18	-2.03	-2.41	-3.08	-0.0793	-0.601	-3.11	-0.122	-0.214	-0.433
TGTGCCG	-0.0286	-0.257	-0.989	-0.000844	-0.0917	-0.971	0.0816	-0.231	-0.126	-0.29
CATTACA	-1.06	-1.39	-0.519	-2.98	-0.0992	-1.05	-1.36	-0.0843	0.0272	-0.0945
ATGTCTG	0.0307	-0.123	0.017	0.64	0.0817	0.738	0.065	-0.0324	-0.0205	-0.0595
CCGTCAT	-0.106	-0.0216	0.159	-0.305	-0.153	-0.0288	-1.38	-0.195	-0.1	-0.139
GTGCGAC	0.00635	-0.165	0.0643	0.506	-0.0346	0.466	0.155	0.0205	-0.0299	-0.0403
CCGGGTT	-0.123	-0.287	0.171	0.0935	-0.145	1.42	0.102	-0.0884	-0.296	-0.196
TTCACAT	0.027	0.0538	0.403	-0.142	0.00375	0.537	0.0857	-0.0309	0.112	0.112
ACAACTG	0.0408	0.08	-0.319	-0.0283	0.00972	-0.318	0.104	0.0337	-0.0199	0.0791
GTAGCGC	-0.0322	-0.00709	-0.706	-0.43	-0.0756	-0.739	0.0101	-0.206	-0.0953	-0.195
CCGAACT	0.0697	0.0168	-0.0185	-2.16	-0.00255	-0.0201	-0.153	0.0867	-0.14	-0.133

Sequence	uncleaved DNA left (log2) [1]	uncleaved DNA left (log2) [2]	uncleaved DNA left (log2) [3]	uncleaved DNA left (log2) [4]	uncleaved DNA left (log2) [5]	uncleaved DNA left (log2) [6]	uncleaved DNA left (log2) [7]	uncleaved DNA left (log2) [8]	uncleaved DNA left (log2) [9]	uncleaved DNA left (log2) [10]
TACAGGG	0.125	0.0735	-0.117	-0.191	0.177	-0.507	0.262	0.143	0.138	0.104
GAGTCCA	0.0475	-0.00865	0.318	-0.709	-0.226	1.09	-2.39	0.0587	0.0991	-0.00198
ACCCCTA	-0.0363	-0.000438	-0.149	-1.08	0.22	-0.598	-0.187	0.0685	-0.00299	-0.0763
CAGGTGT	0.0413	-0.00133	0.111	0.858	-0.0834	0.997	-0.132	0.0127	-0.0437	-0.0632
CCCGGAA	0.0222	0.024	0.106	0.557	0.145	0.524	0.166	0.00705	-0.212	0.115
CAATGTC	0.0971	-0.165	-3.16	-2.66	-0.0394	-2.15	-0.0208	-0.812	-0.0112	-0.74
ACTCCAC	0.0948	0.0849	-0.0514	-0.36	-0.0462	-0.758	0.152	-0.0615	0.0289	0.0516
CACTTAG	0.0229	0.0112	-0.797	-0.444	0.119	-1.17	0.209	-0.0981	0.114	0.0306
TGTCCTC	0.0134	-0.0814	0.302	0.468	-0.0226	1.13	0.0377	-0.0132	0.0886	0.0784
AACATCT	-0.0572	-0.0414	-0.654	-2.54	0.13	-0.905	-1.81	0.126	0.038	0.0569
GCTAAAG	-0.0285	0.0977	-0.566	-0.439	0.0121	-0.886	0.156	0.141	0.0591	0.0218
ATGATAT	-0.0759	-0.114	0.094	0.0578	-0.12	0.287	-0.135	0.0387	-0.0647	-0.11
GCTCTTG	0.104	-0.104	-0.28	-0.402	-0.0537	-0.626	0.152	0.0565	0.096	-0.0749
CTCCTCC	0.0502	-0.0091	0.179	0.222	0.0326	0.639	0.126	-0.0776	-0.0157	0.0366
AACTAGG	0.102	0.203	0.274	1.02	0.159	0.492	0.0928	0.146	0.138	0.236
GCCGGGA	0.0539	0.163	0.827	1.14	0.0786	1.86	0.205	0.148	0.0415	0.165
AGGACGG	-0.129	0.101	0.0289	0.822	-0.128	1.63	-0.0102	0.0317	-0.124	0.0642
GAATCAC	0.0771	0.0339	-0.306	-0.151	0.0755	0.6	0.0527	-0.00687	0.135	0.112
CTTAGCT	-0.00641	-0.0711	-0.385	-1.43	-0.035	-1.1	-0.147	-0.0514	-0.0544	-0.0139
GACCGAC	-0.148	-0.125	-0.0864	0.141	0.0913	-0.241	-0.0683	-0.0905	-0.0667	0.0211
